Data reported in the supplement of paper PMC8728848.
The other results are listed elsewhere or left out.

Tests used:
Assay in all cases: glycan array binding signal (z-score within array); higher = stronger binding
Conditions in all cases: glycan notation: IUPAC condensed, linker removed
[1] = target: 3-Anhydro-Gal(a1-3)Gal(b1-4)3-Anhydro-Gal(a1-3)Gal4S
Outline: (§1)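 Glycan array data were curated from 3228 arrays in the Consortium for Functional Glycomics database and kept only where the protein sequence was available. Glycan names were converted to IUPAC-condensed notation, and columns mapping to the same glycan were averaged. The binding signal is a within-array Z-score, averaged across arrays of the same protein sequence at different concentrations or buffers and across linkers. Negative Z-scores can be read as non-binding.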

[2] = target: 3-Anhydro-Gal(a1-3)Gal4S(b1-4)3-Anhydro-Gal(a1-3)Gal4S
Outline: as §1

[3] = target: 3-Anhydro-Gal(a1-3)Gal4S(b1-4)3-Anhydro-Gal(a1-3)Gal4S(b1-4)3-Anhydro-Gal(a1-3)Gal4S
Outline: as §1

[4] = target: 3-Anhydro-Gal(a1-3)Gal4S(b1-4)3-Anhydro-Gal(a1-3)Gal4S(b1-4)3-Anhydro-Gal(a1-3)Gal4S(b1-4)3-Anhydro-Gal(a1-3)Gal4S
Outline: as §1

[5] = target: 3-Anhydro-Gal(a1-3)Gal4S(b1-4)3-Anhydro-Gal2S(a1-3)Gal4S(b1-4)3-Anhydro-Gal(a1-3)Gal4S
Outline: as §1

[6] = target: 3dGal(b1-3)[Fuc(a1-4)]Glc
Outline: as §1

3dGal(b1-4)Glc = target: 3dGal(b1-4)Glc
Outline: as §1

[7] = target: Ara(a1-5)Ara(a1-5)Ara(a1-5)Ara(a1-5)Ara(a1-5)Ara
Outline: as §1

[8] = target: Ara(a1-5)Ara(a1-5)Ara(a1-5)Ara(a1-5)Ara(a1-5)Ara(a1-5)Ara
Outline: as §1

Fuc(a1-2)Gal = target: Fuc(a1-2)Gal
Outline: as §1

[9] = target: Fuc(a1-2)Gal(b1-3)GlcNAc(b1-3)Gal(b1-4)Glc
Outline: as §1

[10] = target: Fuc(a1-2)Gal(b1-3)GlcNAc(b1-3)[Fuc(a1-3)[Gal(b1-4)]GlcNAc(b1-6)]Gal(b1-4)Glc
Outline: as §1

[11] = target: Fuc(a1-2)Gal(b1-3)[Fuc(a1-4)]GlcNAc(b1-3)Gal(b1-4)Glc
Outline: as §1

[12] = target: Fuc(a1-2)Gal(b1-3)[Fuc(a1-4)]GlcNAc(b1-3)Gal(b1-4)[Fuc(a1-3)]GlcNAc(b1-3)Gal(b1-4)Glc
Outline: as §1

[13] = target: Fuc(a1-2)Gal(b1-3)[Fuc(a1-4)]GlcNAc(b1-3)[Fuc(a1-2)]Gal(b1-4)Glc
Outline: as §1

[14] = target: Fuc(a1-2)Gal(b1-3)[Fuc(a1-4)]GlcNAc(b1-3)[Fuc(a1-3)[Gal(b1-4)]GlcNAc(b1-6)]Gal(b1-4)Glc
Outline: as §1

[15] = target: Fuc(a1-2)Gal(b1-3)[Fuc(a1-4)]GlcNAc(b1-3)[Gal(b1-4)GlcNAc(b1-6)]Gal(b1-4)Glc
Outline: as §1

[16] = target: Fuc(a1-2)Gal(b1-4)[Fuc(a1-3)]GlcNAc(b1-3)Gal(b1-4)Glc
Outline: as §1

[17] = target: Fuc(a1-2)Gal(b1-4)[Fuc(a1-3)]GlcNAc(b1-3)[Fuc(a1-2)]Gal(b1-4)Glc
Outline: as §1

Fuc(a1-2)[Gal(a1-3)]Gal = target: Fuc(a1-2)[Gal(a1-3)]Gal
Outline: as §1

[18] = target: Fuc(a1-2)[Gal(a1-3)]Gal(b1-4)GlcNAc(b1-3)Gal(b1-4)Glc
Outline: as §1

[19] = target: Fuc(a1-2)[GalNAc(a1-3)]Gal
Outline: as §1

[20] = target: Fuc(a1-2)[GalNAc(a1-3)]Gal(b1-3)GlcNAc(b1-3)Gal(b1-4)Glc
Outline: as §1

[21] = target: Fuc(a1-2)[GalNAc(a1-3)]Gal(b1-3)[Fuc(a1-4)]GlcNAc(b1-3)Gal(b1-4)Glc
Outline: as §1

[22] = target: Fuc(a1-2)[Neu5Ac(bond)]Gal(b1-3)GlcNAc(b1-3)Gal(b1-4)Glc
Outline: as §1

Fuc(a1-3)GlcNAc6S = target: Fuc(a1-3)GlcNAc6S
Outline: as §1

[23] = target: Fuc(a1-3)[3dGal(b1-4)]Glc
Outline: as §1

[24] = target: Fuc(a1-3)[Gal(b1-4)]GlcNAc
Outline: as §1

[25] = target: Fuc(a1-3)[Gal(b1-4)]GlcNAc(b1-3)Gal(b1-4)Glc
Outline: as §1

[26] = target: Fuc(a1-3)[Gal(b1-4)]GlcNAc(b1-3)Gal(b1-4)[Fuc(a1-3)]Glc
Outline: as §1

[27] = target: Fuc(a1-3)[Gal(b1-4)]GlcNAc(b1-3)[Fuc(a1-2)]Gal(b1-4)Glc
Outline: as §1

[28] = target: Fuc(a1-3)[Gal(b1-4)]GlcNAc(b1-3)[Fuc(a1-3)[Gal(b1-4)]GlcNAc(b1-6)]Gal(b1-4)Glc
Outline: as §1

[29] = target: Fuc(a1-3)[Gal3S(b1-4)]Glc
Outline: as §1

[30] = target: Fuc(a1-3)[Gal3S(b1-4)]GlcNAc
Outline: as §1

[31] = target: Fuc(a1-3)[Gal3S(b1-4)]GlcNAc(b1-3)Gal(b1-4)Glc
Outline: as §1

[32] = target: Fuc(a1-3)[Gal3S(b1-4)]GlcNAc6S(b1-3)Gal(b1-4)Glc
Outline: as §1

[33] = target: Fuc(a1-3)[Gal6S(b1-4)]GlcNAc(b1-3)Gal(b1-4)Glc
Outline: as §1

Fuc(a1-6)GlcNAc = target: Fuc(a1-6)GlcNAc
Outline: as §1

[34] = target: Gal(a1-3)Gal(b1-4)Gal(a1-3)Gal
Outline: as §1

Gal(a1-4)Gal(b1-4)GlcNAc = target: Gal(a1-4)Gal(b1-4)GlcNAc
Outline: as §1

Gal(b1-3)GalNAc = target: Gal(b1-3)GalNAc
Outline: as §1

[35] = target: Gal(b1-3)GalNAc(b1-4)Gal(b1-4)Glc
Outline: as §1

[36] = target: Gal(b1-3)GalNAc(b1-4)Gal3S(b1-4)Glc
Outline: as §1

[37] = target: Gal(b1-3)GalNAc(b1-4)[Neu5Ac(a2-3)]Gal(b1-4)Glc
Outline: as §1

[38] = target: Gal(b1-3)GalNAc(b1-4)[Neu5Gc(a2-3)]Gal(b1-4)Glc
Outline: as §1

B1: Dectin-1 (Mus musculus), Q6QLQ4 (protein)
chain: GHNSGRNPEEKDNFLSRNKENHKPTESSLDEKVAPSKASQTTGGFSQPCLPNWIMHGKSCYLFSFSGNSWYGSKRHCSQLGAHLLKIDNSKEFEFIESQTSSHRINAFWIGLSRNQSEGPWFWEDGSAFFPNSFQVRNTAPQESLLHNCVWIHGSEVYNQICNTSSYSICEKEL
**Q.** How did the “glycan array binding signal (z-score)” value [1] turn out when B1 was run?
**A.** 0.01

**Q.** What about the “glycan array binding signal (z-score)” value [2] of the same binder?
**A.** -0.08

**Q.** And the “glycan array binding signal (z-score)” value [3]?
**A.** -0.091

**Q.** What about the “glycan array binding signal (z-score)” value [4] of the same binder?
**A.** -0.091

**Q.** And the “glycan array binding signal (z-score)” value [5]?
**A.** -0.091

**Q.** What about the “glycan array binding signal (z-score)” value [6] of the same binder?
**A.** 0.092

**Q.** And the “glycan array binding signal (z-score)” value (3dGal(b1-4)Glc)?
**A.** -0.013

**Q.** What about the “glycan array binding signal (z-score)” value [7] of the same binder?
**A.** -0.047

**Q.** And the “glycan array binding signal (z-score)” value [8]?
**A.** -0.064

**Q.** And the “glycan array binding signal (z-score)” value (Fuc(a1-2)Gal)?
**A.** -0.02

**Q.** And the “glycan array binding signal (z-score)” value [9]?
**A.** -0.068

**Q.** What about the “glycan array binding signal (z-score)” value [10] of the same binder?
**A.** -0.087

**Q.** And the “glycan array binding signal (z-score)” value [11]?
**A.** -0.018

**Q.** What about the “glycan array binding signal (z-score)” value [12] of the same binder?
**A.** 0.085

**Q.** And the “glycan array binding signal (z-score)” value [13]?
**A.** -0.091

**Q.** What about the “glycan array binding signal (z-score)” value [14] of the same binder?
**A.** -0.081

**Q.** What about the “glycan array binding signal (z-score)” value [15] of the same binder?
**A.** -0.085

**Q.** And the “glycan array binding signal (z-score)” value [16]?
**A.** -0.091

**Q.** What about the “glycan array binding signal (z-score)” value [17] of the same binder?
**A.** -0.089

**Q.** What about the “glycan array binding signal (z-score)” value (Fuc(a1-2)[Gal(a1-3)]Gal) of the same binder?
**A.** -0.091

**Q.** And the “glycan array binding signal (z-score)” value [18]?
**A.** -0.091

**Q.** And the “glycan array binding signal (z-score)” value [19]?
**A.** -0.033

**Q.** What about the “glycan array binding signal (z-score)” value [20] of the same binder?
**A.** -0.091

**Q.** What about the “glycan array binding signal (z-score)” value [21] of the same binder?
**A.** -0.034

**Q.** What about the “glycan array binding signal (z-score)” value [22] of the same binder?
**A.** -0.091

**Q.** What about the “glycan array binding signal (z-score)” value (Fuc(a1-3)GlcNAc6S) of the same binder?
**A.** -0.021

**Q.** And the “glycan array binding signal (z-score)” value [23]?
**A.** -0.067

**Q.** What about the “glycan array binding signal (z-score)” value [24] of the same binder?
**A.** -0.091

**Q.** And the “glycan array binding signal (z-score)” value [25]?
**A.** -0.067

**Q.** What about the “glycan array binding signal (z-score)” value [26] of the same binder?
**A.** -0.03

**Q.** And the “glycan array binding signal (z-score)” value [27]?
**A.** -0.091

**Q.** What about the “glycan array binding signal (z-score)” value [28] of the same binder?
**A.** -0.091

**Q.** What about the “glycan array binding signal (z-score)” value [29] of the same binder?
**A.** -0.091

**Q.** What about the “glycan array binding signal (z-score)” value [30] of the same binder?
**A.** -0.091

**Q.** And the “glycan array binding signal (z-score)” value [31]?
**A.** -0.091

**Q.** And the “glycan array binding signal (z-score)” value [32]?
**A.** -0.091

**Q.** What about the “glycan array binding signal (z-score)” value [33] of the same binder?
**A.** -0.091

**Q.** And the “glycan array binding signal (z-score)” value (Fuc(a1-6)GlcNAc)?
**A.** -0.091

**Q.** And the “glycan array binding signal (z-score)” value [34]?
**A.** -0.09

**Q.** And the “glycan array binding signal (z-score)” value (Gal(a1-4)Gal(b1-4)GlcNAc)?
**A.** -0.091

**Q.** What about the “glycan array binding signal (z-score)” value (Gal(b1-3)GalNAc) of the same binder?
**A.** -0.08

**Q.** And the “glycan array binding signal (z-score)” value [35]?
**A.** 0.018

**Q.** And the “glycan array binding signal (z-score)” value [36]?
**A.** -0.091

**Q.** And the “glycan array binding signal (z-score)” value [37]?
**A.** -0.091

**Q.** What about the “glycan array binding signal (z-score)” value [38] of the same binder?
**A.** -0.091
